Measurements as given in the supplement of paper PMC10338343.
± gives the standard deviation. The entries are a selection whose mix differs from that of the whole data set.

tested on: MIWI (PIWIL1) piRISC loaded with piRNA #1 (30 nt); experiment: pre-steady-state target cleavage rate (min^-1); MIWI and MILI are mouse PIWI proteins and EfPiwi is from a freshwater sponge; tags in brackets are library labels; higher = faster piRNA-guided slicing of the target; conditions: guide: piRNA #1 5'p-UGAGGUAGUAGGUUGUAUAGUAUCCAGAGG; auxiliary factor: 500 nM mouse GTSF1
How it was run: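 At 33 °C in HEPES–potassium acetate buffer, a transcribed, DNA-blocked target RNA library […] was exposed for 0–8 or 0–960 min to 1 nM active affinity-purified piRISC carrying a single synthetic guide, with or without 500 nM GTSF1 partner protein. Uncleaved targets were sequenced and normalised to depth and to weakly complementary targets. With three trials pooled and k3 capped at 0.0001 min^-1, a burst-and-steady-state fit produced the pre-steady-state cleavage rate.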
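Note: 1 nM active piRISC with 0.1 nM target library at 33 °C single turnover.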

Sequence | pre-steady-state target cleavage rate
GGAGAGGAUACUAUAAAACCUACUACCUCA | 1.26 ± 0.057
GGAGACCUAUGUAUACAACCUUCUACCACA | 0.00658 ± 0.0021
CCUCUGGAUACUAUACAACCUACUACCUCCA | 2.27 ± 0.14
GGACUGGAUACUAUACAACCUACUACCUCA [g2:g27:cont:t1A] | 1.72 ± 0.11
GGAGACCUAUGAUAUGUUCCUACUAACUCA | < 0.0001
GGAGACGAUACUAUACUACCUACUACGUCA | 0.833 ± 0.074
GGACUGGAUAGUAUACAACCUACUACCUCA | 0.622 ± 0.062
GGAGACGAAACUAUACAAGCUACUACCUCA | 0.872 ± 0.057
GGAGAGGAUACUAUACAACCUACUCACCUCA | 0.894 ± 0.07
GGAGAGGAUACUAUACUACCUACUACCUCA | 1.06 ± 0.052
GGUCUGGAUACAAUACAACCUUCUACCUCA | 0.626 ± 0.035
GGAGACGAUACAAUACAACCUACUAGCUCA | 0.617 ± 0.051
GCUCUGGAUACUAUUCUACCUACUACCUCA | 1.24 ± 0.1
CCUCUGCAUACUAUUCAACCUACUACCUCA | 2.21 ± 0.14
GGAGAGGAUACCUAUACAACCUACUACCUCA | 1.27 ± 0.079
GGUCUGCAUACUAUACAACCUACAACCUCA | 0.292 ± 0.035
GCUCUGGAUACUAUACAACCACUACCUCA | 0.0144 ± 0.0047
GCUCAGGAUACUAUACAACCUAGUACCUCA | 0.489 ± 0.043
GGAGACGAUACUAUACAACGUACUACGUCA | 0.354 ± 0.063
GCUCUGGAUACUAAACUACCUACUACCUCA | 1.08 ± 0.083

Sequence | pre-steady-state target cleavage rate
GGACUGGAUACUAUACAACCUAACUACCUCA | 0.0167 ± 0.0032
GGAGACCUAUGAUAUGUUCCUAGUAGCUCA | < 0.0001
GGAGACCUAUCUAUACAUCCUACUACGUCA | 0.221 ± 0.024
GCUCUGGAUACUAUACAACCUAUUACCUCA | 1.88 ± 0.13
GGUCUGGAUACUAAACAACCUUCUACCUCA | 0.677 ± 0.037
GGAGACCAUACUAUAGAACCAACUACCUCA | 0.0382 ± 0.0054
CCUCUGGAUACUAUACAAGCUACUACGUCA | 1.03 ± 0.05
GGAGUGGAUACUUAACAACCUACUACCUCA | 1.01 ± 0.093
GGAGAGGAUACUAUACAACCACUACCUCA | 0.00665 ± 0.0025
GGAGACCUUACUAUACAACCUACUACGCUCA | 1.22 ± 0.074
GGAGUGGAUACUAUACAAGCUACUACGUCA | 0.254 ± 0.028
GGACUGGAUACUAUUCUACCUACUACCUCA | 1.04 ± 0.11
GGAGUGGAUACAAUACAACCUAGUACCUCA | 0.54 ± 0.058
GCUGUGGAUACUAUACAUCCUACUACCUCA | 1.61 ± 0.092
CCUCUGGAUACUAUAGAACCUACUACCACA | 0.372 ± 0.042
GGACUGGAUACAAUACAACCUUCUACCUCA | 0.634 ± 0.045
GCUCUGGAUUCUAAACAACCUACUACCUCA | 0.502 ± 0.065
GCUCUGGAUACUAUACAACCUAAUACCUCA | 1.55 ± 0.12
GGAGACCAAUGUAUACAACCUACUACCUCA | 0.204 ± 0.027
